Data on 27 compounds can be found in the supplement of paper PMC4604168 (melanoma cell lines).

This is one part of the list. Single values are uncertain, as repeats are few or missing.
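Further: cells treated in 1,536-well plates, then fixed and DAPI-stained, with nuclei counted from automated high-throughput microscope images.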

The assay concerns WM451Lu. Kind of assay: cell count relative to DMSO control; melanoma cells; higher = more viable cells. Particulars: library dose: standard library concentration; 72 h.
With `Cc1cc(Nc2cc(N3CCN(C)CC3)nc(Sc3ccc(NC(=O)C4CC4)cc3)n2)n[nH]1` [Tozasertib] + C=CCn1c(=O)c2cnc(Nc3ccc(N4CCN(C)CC4)cc3)nc2n1-c1cccc(C(C)(C)O)n1 [MK1775] (first compound 0.03 µM, partner dose 0.1 µM), the cell count is 90.1%. The result for `Cc1cc(Nc2cc(N3CCN(C)CC3)nc(Sc3ccc(NC(=O)C4CC4)cc3)n2)n[nH]1` [Tozasertib] + Cc1ccc(NC(=O)c2cccc(N(C)C)c2)cc1NC(=O)c1ccc(O)cc1 [ZM336372] (first compound 0.03 µM, partner dose 10 µM) reads 83.3%; that for `CC[C@]1(O)C[C@H]2CN(CCc3c([nH]c4ccccc34)[C@@](C(=O)OC)(c3cc4c(cc3OC)N(C=O)[C@H]3[C@@](O)(C(=O)OC)[C@H](OC(C)=O)[C@]5(CC)C=CCN6CC[C@]43[C@@H]65)C2)C1` [vincristine] + C[C@@H]1CCN(C(=O)CC#N)C[C@@H]1N(C)c1ncnc2[nH]ccc12 [CP690550] (first compound 0.0005 µM, partner dose 5 µM), 37.5%; that for `Cc1cc(Nc2cc(N3CCN(C)CC3)nc(Sc3ccc(NC(=O)C4CC4)cc3)n2)n[nH]1` [Tozasertib] + CC(C)(C)c1cnc(CSc2cnc(NC(=O)C3CCNCC3)s2)o1 [SNS-032] (first compound 0.03 µM, partner dose 0.05 µM), 74.2%.

The compound `CC[C@]1(O)C[C@H]2CN(CCc3c([nH]c4ccccc34)[C@@](C(=O)OC)(c3cc4c(cc3OC)N(C=O)[C@H]3[C@@](O)(C(=O)OC)[C@H](OC(C)=O)[C@]5(CC)C=CCN6CC[C@]43[C@@H]65)C2)C1` [vincristine] + C=CCn1c(=O)c2cnc(Nc3ccc(N4CCN(C)CC4)cc3)nc2n1-c1cccc(C(C)(C)O)n1 [MK1775] (first compound 0.0005 µM, partner dose 0.1 µM) yielded a cell count of 29.8%.

`CC[C@]1(O)C[C@H]2CN(CCc3c([nH]c4ccccc34)[C@@](C(=O)OC)(c3cc4c(cc3OC)N(C=O)[C@H]3[C@@](O)(C(=O)OC)[C@H](OC(C)=O)[C@]5(CC)C=CCN6CC[C@]43[C@@H]65)C2)C1` [vincristine] + Cn1cncc1[C@@](N)(c1ccc(Cl)cc1)c1ccc2c(c1)c(-c1cccc(Cl)c1)cc(=O)n2C [tipifarnib] (first compound 0.0005 µM, partner dose 0.05 µM) yielded a cell count of 42.5%. The result for `N#CC[C@H](C1CCCC1)n1cc(-c2ncnc3[nH]ccc23)cn1` [ruxolitinib] + NCC(=O)Nc1ccc(-n2nc(C(F)(F)F)cc2-c2ccc3c(ccc4ccccc43)c2)cc1 [OSU03012] (first compound 5 µM, partner dose 5 µM) reads 77.3%.

`N#CC[C@H](C1CCCC1)n1cc(-c2ncnc3[nH]ccc23)cn1` [ruxolitinib] + CC(C)(C)c1cnc(CSc2cnc(NC(=O)C3CCNCC3)s2)o1 [SNS-032] (first compound 5 µM, partner dose 0.05 µM) returned a cell count of 73.2%.

Compound `CC[C@]1(O)C[C@H]2CN(CCc3c([nH]c4ccccc34)[C@@](C(=O)OC)(c3cc4c(cc3OC)N(C=O)[C@H]3[C@@](O)(C(=O)OC)[C@H](OC(C)=O)[C@]5(CC)C=CCN6CC[C@]43[C@@H]65)C2)C1` [vincristine] + Cc1cc(N2CCOCC2)cc2[nH]c(-c3c(NC[C@@H](O)c4cccc(Cl)c4)cc[nH]c3=O)nc12 [BMS536924] (first compound 0.0005 µM, partner dose 1 µM) yielded a cell count of 28.5%.

`CC[C@]1(O)C[C@H]2CN(CCc3c([nH]c4ccccc34)[C@@](C(=O)OC)(c3cc4c(cc3OC)N(C=O)[C@H]3[C@@](O)(C(=O)OC)[C@H](OC(C)=O)[C@]5(CC)C=CCN6CC[C@]43[C@@H]65)C2)C1` [vincristine] + CC(C)(C)c1cnc(CSc2cnc(NC(=O)C3CCNCC3)s2)o1 [SNS-032] (first compound 0.0005 µM, partner dose 0.05 µM) came in with a cell count of 26%. Consider `N#CC[C@H](C1CCCC1)n1cc(-c2ncnc3[nH]ccc23)cn1` [ruxolitinib] + NC(=O)Nc1cc(-c2cccc(F)c2)sc1C(=O)N[C@H]1CCCNC1 [AZD7762] (first compound 5 µM, partner dose 0.1 µM), for which the cell count came to 75.8%. For `N#CC[C@H](C1CCCC1)n1cc(-c2ncnc3[nH]ccc23)cn1` [ruxolitinib] + O=C(Nc1cccc(Cl)c1)Nc1ncc(CCNc2ncnc3ccsc23)s1 [SNS314] (first compound 5 µM, partner dose 0.004 µM) the value was 47.6%; for `N#CC[C@H](C1CCCC1)n1cc(-c2ncnc3[nH]ccc23)cn1` [ruxolitinib] + CN(NC(=O)CC(=O)NN(C)C(=S)c1ccccc1)C(=S)c1ccccc1 [STA4783] (first compound 5 µM, partner dose 0.03 µM), 100%.

With `N#CC[C@H](C1CCCC1)n1cc(-c2ncnc3[nH]ccc23)cn1` [ruxolitinib] + O=C(CCCCCCC(=O)Nc1ccccc1)NO [vorinostat] (first compound 5 µM, partner dose 0.4 µM), the cell count was 80.6%. For the compound `Cc1cc(Nc2cc(N3CCN(C)CC3)nc(Sc3ccc(NC(=O)C4CC4)cc3)n2)n[nH]1` [Tozasertib] + OCCn1cc(-c2cnc3nnn(Cc4ccc5ncccc5c4)c3n2)cn1 [PF04217903] (first compound 0.03 µM, partner dose 5 µM), the cell count came to 88.6%. Regarding `N#CC[C@H](C1CCCC1)n1cc(-c2ncnc3[nH]ccc23)cn1` [ruxolitinib] + Cc1cc(N2CCOCC2)cc2[nH]c(-c3c(NC[C@@H](O)c4cccc(Cl)c4)cc[nH]c3=O)nc12 [BMS536924] (first compound 5 µM, partner dose 1 µM), the cell count was determined as 112%. The result for `N#CC[C@H](C1CCCC1)n1cc(-c2ncnc3[nH]ccc23)cn1` [ruxolitinib] + C=CCn1c(=O)c2cnc(Nc3ccc(N4CCN(C)CC4)cc3)nc2n1-c1cccc(C(C)(C)O)n1 [MK1775] (first compound 5 µM, partner dose 0.1 µM) reads 89.7%; that for `N#CC[C@H](C1CCCC1)n1cc(-c2ncnc3[nH]ccc23)cn1` [ruxolitinib] + C[C@@H]1CCN(C(=O)CC#N)C[C@@H]1N(C)c1ncnc2[nH]ccc12 [CP690550] (first compound 5 µM, partner dose 5 µM), 95.6%.

Regarding `CC[C@]1(O)C[C@H]2CN(CCc3c([nH]c4ccccc34)[C@@](C(=O)OC)(c3cc4c(cc3OC)N(C=O)[C@H]3[C@@](O)(C(=O)OC)[C@H](OC(C)=O)[C@]5(CC)C=CCN6CC[C@]43[C@@H]65)C2)C1` [vincristine] + CN(C)S(=O)(=O)c1ccc2c(c1)/C(=C/c1cc3c([nH]1)CCCC3)C(=O)N2 [SU6656] (first compound 0.0005 µM, partner dose 2 µM), the cell count is 38.8%. For `Cc1cc(Nc2cc(N3CCN(C)CC3)nc(Sc3ccc(NC(=O)C4CC4)cc3)n2)n[nH]1` [Tozasertib] + Cc1cc(N2CCOCC2)cc2[nH]c(-c3c(NC[C@@H](O)c4cccc(Cl)c4)cc[nH]c3=O)nc12 [BMS536924] (first compound 0.03 µM, partner dose 1 µM) the value was 84.4%; for `N#CC[C@H](C1CCCC1)n1cc(-c2ncnc3[nH]ccc23)cn1` [ruxolitinib] + Cn1c(Nc2ccc(C(F)(F)F)cc2)nc2cc(Oc3ccnc(-c4ncc(C(F)(F)F)[nH]4)c3)ccc21 [CHIR265] (first compound 5 µM, partner dose 0.4 µM), 60.3%. As for `CC[C@]1(O)C[C@H]2CN(CCc3c([nH]c4ccccc34)[C@@](C(=O)OC)(c3cc4c(cc3OC)N(C=O)[C@H]3[C@@](O)(C(=O)OC)[C@H](OC(C)=O)[C@]5(CC)C=CCN6CC[C@]43[C@@H]65)C2)C1` [vincristine] + Cc1ccc(NC(=O)c2cccc(N(C)C)c2)cc1NC(=O)c1ccc(O)cc1 [ZM336372] (first compound 0.0005 µM, partner dose 10 µM), the cell count was 31.6%. `N#CC[C@H](C1CCCC1)n1cc(-c2ncnc3[nH]ccc23)cn1` [ruxolitinib] + Cc1ccc(NC(=O)c2cccc(N(C)C)c2)cc1NC(=O)c1ccc(O)cc1 [ZM336372] (first compound 5 µM, partner dose 10 µM): the cell count was found to be 101%. The compound `Cc1cc(Nc2cc(N3CCN(C)CC3)nc(Sc3ccc(NC(=O)C4CC4)cc3)n2)n[nH]1` [Tozasertib] + CO[C@@H]1[C@H](N(C)C(=O)c2ccccc2)C[C@H]2O[C@]1(C)n1c3ccccc3c3c4c(c5c6ccccc6n2c5c31)C(=O)NC4 [Midostaurin] (first compound 0.03 µM, partner dose 0.4 µM) had a cell count of 78.6%. For `N#CC[C@H](C1CCCC1)n1cc(-c2ncnc3[nH]ccc23)cn1` [ruxolitinib] + COc1cc(Nc2ncc(F)c(Nc3ccc4c(n3)NC(=O)C(C)(C)O4)n2)cc(OC)c1OC [Tamatinib] (first compound 5 µM, partner dose 2 µM), the cell count is 64.2%. For `Cc1cc(Nc2cc(N3CCN(C)CC3)nc(Sc3ccc(NC(=O)C4CC4)cc3)n2)n[nH]1` [Tozasertib] + O=C(O)c1ccc(-c2c[nH]c3ncc(-c4ccccc4)cc23)cc1C1CCCC1 [GSK650394] (first compound 0.03 µM, partner dose 0.8 µM), the cell count stood at 73.7%. Compound `Cc1cc(Nc2cc(N3CCN(C)CC3)nc(Sc3ccc(NC(=O)C4CC4)cc3)n2)n[nH]1` [Tozasertib] + COc1cc(Nc2ncc(F)c(Nc3ccc4c(n3)NC(=O)C(C)(C)O4)n2)cc(OC)c1OC [Tamatinib] (first compound 0.03 µM, partner dose 2 µM) yielded a cell count of 73.5%.
